# Source: the supplement of paper PMC8728848
# Some of the results follow.
# B1: Gal 3 (Homo sapiens), P17931 (protein)
# chain: MADNFSLHDALSGSGNPNPQGWPGAWGNQPAGAGGYPGASYPGAYPGQAPPGAYPGQAPPGAYHGAPGAYPGAPAPGVYPGPPSGPGAYPSSGQPSAPGAYPATGPYGAPAGPLIVPYNLPLPGGVVPRMLITILGTVKPNANRIQLDFQRGNDVAFHFNPRFNENNRRVIVCNTKLDNNWGREERQSVFPFESGKPFKIQVLVEPDHFKVAVNDAHLLQYNHRVKKLNEISKLGISGDIDLTSASYTMI
# Key:
# Assay in all cases: glycan array binding signal (z-score within array); higher = stronger binding
# Conditions in all cases: glycan notation: IUPAC condensed, linker removed; mutation: A146Q
# [1] = target: GlcNAc6S(b1-3)Gal(b1-4)GlcNAc
# Procedure, shortened: (§1)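 The binding signal is a Z-score computed within each array and averaged over linkers. Arrays of the same protein sequence at different concentrations or buffers were also averaged together. Data originate from 3228 arrays in the Consortium for Functional Glycomics database, kept only where the protein sequence was available.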
# Kdn(a2-3)Gal(b1-3)GalNAc = target: Kdn(a2-3)Gal(b1-3)GalNAc
# Procedure, shortened: as §1
# Kdn(a2-3)Gal(b1-3)GlcNAc = target: Kdn(a2-3)Gal(b1-3)GlcNAc
# Procedure, shortened: as §1
# Kdn(a2-3)Gal(b1-4)Glc = target: Kdn(a2-3)Gal(b1-4)Glc
# Procedure, shortened: as §1
# Kdn(a2-3)Gal(b1-4)GlcNAc = target: Kdn(a2-3)Gal(b1-4)GlcNAc
# Procedure, shortened: as §1
# [2] = target: Kdn(a2-3)Gal(b1-4)[Fuc(a1-3)]GlcNAc
# Procedure, shortened: as §1
# Kdn(a2-6)Gal(b1-4)GlcNAc = target: Kdn(a2-6)Gal(b1-4)GlcNAc
# Procedure, shortened: as §1
# [3] = target: Man(a1-2)Man(a1-2)Man(a1-3)Man
# Procedure, shortened: as §1
# [4] = target: Man(a1-2)Man(a1-2)Man(a1-6)[Man(a1-3)]Man
# Procedure, shortened: as §1
# Man(a1-2)Man(a1-3)Man = target: Man(a1-2)Man(a1-3)Man
# Procedure, shortened: as §1
# [5] = target: Man(a1-2)Man(a1-3)[Man(a1-2)Man(a1-6)]Man
# Procedure, shortened: as §1
# [6] = target: Man(a1-2)Man(a1-3)[Man(a1-2)Man(a1-6)]Man(a1-6)[Man(a1-2)Man(a1-2)Man(a1-3)]Man
# Procedure, shortened: as §1
# [7] = target: Man(a1-2)Man(a1-3)[Man(a1-2)Man(a1-6)]Man(a1-6)[Man(a1-2)Man(a1-2)Man(a1-3)]Man(b1-4)GlcNAc(b1-4)GlcNAc
# Procedure, shortened: as §1
# [8] = target: Man(a1-2)Man(a1-3)[Man(a1-6)]Man(a1-6)[Man(a1-2)Man(a1-3)]Man(b1-4)GlcNAc(b1-4)GlcNAc
# Procedure, shortened: as §1
# [9] = target: Man(a1-2)Man(a1-6)[Man(a1-3)]Man(a1-6)[Man(a1-2)Man(a1-2)Man(a1-3)]Man
# Procedure, shortened: as §1
# [10] = target: Man(a1-2)Man(a1-6)[Man(a1-3)]Man(a1-6)[Man(a1-2)Man(a1-2)Man(a1-3)]Man(b1-4)GlcNAc(b1-4)GlcNAc
# Procedure, shortened: as §1
# Man(a1-3)[Man(a1-6)]Man = target: Man(a1-3)[Man(a1-6)]Man
# Procedure, shortened: as §1
# [11] = target: Man(a1-3)[Man(a1-6)]Man(a1-6)[Man(a1-2)Man(a1-3)]Man(b1-4)GlcNAc(b1-4)GlcNAc
# Procedure, shortened: as §1
# [12] = target: Man(a1-3)[Man(a1-6)]Man(a1-6)[Man(a1-3)]Man
# Procedure, shortened: as §1
# [13] = target: Man(a1-3)[Man(a1-6)]Man(a1-6)[Man(a1-3)]Man(b1-4)GlcNAc(b1-4)GlcNAc
# Procedure, shortened: as §1
# [14] = target: Man(a1-3)[Man(a1-6)]Man(b1-4)GlcNAc(b1-4)GlcNAc
# Procedure, shortened: as §1
# Man(a1-6)Man = target: Man(a1-6)Man
# Procedure, shortened: as §1
# Man(b1-4)GlcNAc = target: Man(b1-4)GlcNAc
# Procedure, shortened: as §1
# Neu5Ac(a2-3)Gal = target: Neu5Ac(a2-3)Gal
# Procedure, shortened: as §1
# [15] = target: Neu5Ac(a2-3)Gal(b1-3)GalNAc
# Procedure, shortened: as §1
# [16] = target: Neu5Ac(a2-3)Gal(b1-3)GalNAc(b1-3)Gal(a1-4)Gal(b1-4)Glc
# Procedure, shortened: as §1
# [17] = target: Neu5Ac(a2-3)Gal(b1-3)GalNAc(b1-4)[Neu5Ac(a2-3)]Gal(b1-4)Glc
# Procedure, shortened: as §1
# [18] = target: Neu5Ac(a2-3)Gal(b1-3)GalNAc6S
# Procedure, shortened: as §1
# [19] = target: Neu5Ac(a2-3)Gal(b1-3)GlcNAc
# Procedure, shortened: as §1
# [20] = target: Neu5Ac(a2-3)Gal(b1-3)GlcNAc(b1-2)Man(a1-3)[Neu5Ac(a2-3)Gal(b1-3)GlcNAc(b1-2)Man(a1-6)]Man(b1-4)GlcNAc(b1-4)GlcNAc
# Procedure, shortened: as §1
# [21] = target: Neu5Ac(a2-3)Gal(b1-3)GlcNAc(b1-3)Gal(b1-3)GlcNAc
# Procedure, shortened: as §1
# [22] = target: Neu5Ac(a2-3)Gal(b1-3)GlcNAc(b1-3)Gal(b1-4)GlcNAc
# Procedure, shortened: as §1
# [23] = target: Neu5Ac(a2-3)Gal(b1-3)GlcNAc(b1-3)GalNAc
# Procedure, shortened: as §1
# [24] = target: Neu5Ac(a2-3)Gal(b1-3)GlcNAc6S
# Procedure, shortened: as §1
# [25] = target: Neu5Ac(a2-3)Gal(b1-3)[Fuc(a1-4)]GlcNAc
# Procedure, shortened: as §1
# [26] = target: Neu5Ac(a2-3)Gal(b1-3)[Fuc(a1-4)]GlcNAc(b1-3)Gal(b1-3)[Fuc(a1-4)]GlcNAc
# Procedure, shortened: as §1
# [27] = target: Neu5Ac(a2-3)Gal(b1-3)[Fuc(a1-4)]GlcNAc(b1-3)Gal(b1-4)[Fuc(a1-3)]GlcNAc
# Procedure, shortened: as §1
# [28] = target: Neu5Ac(a2-3)Gal(b1-3)[Neu5Ac(a2-3)Gal(b1-4)]GlcNAc
# Procedure, shortened: as §1
# [29] = target: Neu5Ac(a2-3)Gal(b1-3)[Neu5Ac(a2-6)]GalNAc
# Procedure, shortened: as §1
# Neu5Ac(a2-3)Gal(b1-4)Glc = target: Neu5Ac(a2-3)Gal(b1-4)Glc
# Procedure, shortened: as §1
# [30] = target: Neu5Ac(a2-3)Gal(b1-4)GlcNAc
# Procedure, shortened: as §1
# [31] = target: Neu5Ac(a2-3)Gal(b1-4)GlcNAc(b1-2)Man(a1-3)[GlcNAc(b1-2)Man(b1-4)GlcNAc(b1-2)Man(a1-6)]Man(b1-4)GlcNAc(b1-4)GlcNAc
# Procedure, shortened: as §1
# [32] = target: Neu5Ac(a2-3)Gal(b1-4)GlcNAc(b1-2)Man(a1-3)[Neu5Ac(a2-6)Gal(b1-4)GlcNAc(b1-2)Man(a1-6)]Man(b1-4)GlcNAc(b1-4)GlcNAc
# Procedure, shortened: as §1
# [33] = target: Neu5Ac(a2-3)Gal(b1-4)GlcNAc(b1-3)Gal(b1-3)GlcNAc
# Procedure, shortened: as §1
# [34] = target: Neu5Ac(a2-3)Gal(b1-4)GlcNAc(b1-3)Gal(b1-4)GlcNAc
# Procedure, shortened: as §1
# [35] = target: Neu5Ac(a2-3)Gal(b1-4)GlcNAc(b1-3)Gal(b1-4)GlcNAc(b1-3)Gal(b1-4)GlcNAc
# Procedure, shortened: as §1
# [36] = target: Neu5Ac(a2-3)Gal(b1-4)GlcNAc(b1-3)Gal(b1-4)[Fuc(a1-3)]GlcNAc
# Procedure, shortened: as §1
# [37] = target: Neu5Ac(a2-3)Gal(b1-4)GlcNAc(b1-3)GalNAc
# Procedure, shortened: as §1
# [38] = target: Neu5Ac(a2-3)Gal(b1-4)GlcNAc(b1-6)[Gal(b1-3)]GalNAc
# Procedure, shortened: as §1
# [39] = target: Neu5Ac(a2-3)Gal(b1-4)GlcNAc(b1-6)[Neu5Ac(a2-3)Gal(b1-3)]GalNAc
# Procedure, shortened: as §1
# [40] = target: Neu5Ac(a2-3)Gal(b1-4)GlcNAc6S
# Procedure, shortened: as §1
# [41] = target: Neu5Ac(a2-3)Gal(b1-4)[Fuc(a1-3)]GlcNAc
# Procedure, shortened: as §1
# [42] = target: Neu5Ac(a2-3)Gal(b1-4)[Fuc(a1-3)]GlcNAc(b1-3)Gal
# Procedure, shortened: as §1
# [43] = target: Neu5Ac(a2-3)Gal(b1-4)[Fuc(a1-3)]GlcNAc(b1-3)Gal(b1-4)GlcNAc
# Procedure, shortened: as §1
# [44] = target: Neu5Ac(a2-3)Gal(b1-4)[Fuc(a1-3)]GlcNAc(b1-3)Gal(b1-4)[Fuc(a1-3)]GlcNAc(b1-3)Gal(b1-4)[Fuc(a1-3)]GlcNAc
# Procedure, shortened: as §1
binder,measurement,setting,value
B1,glycan array binding signal (z-score),[1],-0.198
same,glycan array binding signal (z-score),Kdn(a2-3)Gal(b1-3)GalNAc,-0.191
same,glycan array binding signal (z-score),Kdn(a2-3)Gal(b1-3)GlcNAc,-0.183
same,glycan array binding signal (z-score),Kdn(a2-3)Gal(b1-4)Glc,-0.194
same,glycan array binding signal (z-score),Kdn(a2-3)Gal(b1-4)GlcNAc,-0.18
same,glycan array binding signal (z-score),[2],-0.201
same,glycan array binding signal (z-score),Kdn(a2-6)Gal(b1-4)GlcNAc,-0.2
same,glycan array binding signal (z-score),[3],-0.186
same,glycan array binding signal (z-score),[4],-0.177
same,glycan array binding signal (z-score),Man(a1-2)Man(a1-3)Man,-0.199
same,glycan array binding signal (z-score),[5],-0.192
same,glycan array binding signal (z-score),[6],-0.196
same,glycan array binding signal (z-score),[7],-0.15
same,glycan array binding signal (z-score),[8],-0.176
same,glycan array binding signal (z-score),[9],-0.183
same,glycan array binding signal (z-score),[10],-0.202
same,glycan array binding signal (z-score),Man(a1-3)[Man(a1-6)]Man,-0.181
same,glycan array binding signal (z-score),[11],-0.202
same,glycan array binding signal (z-score),[12],-0.203
same,glycan array binding signal (z-score),[13],-0.189
same,glycan array binding signal (z-score),[14],-0.201
same,glycan array binding signal (z-score),Man(a1-6)Man,-0.153
same,glycan array binding signal (z-score),Man(b1-4)GlcNAc,-0.2
same,glycan array binding signal (z-score),Neu5Ac(a2-3)Gal,-0.197
same,glycan array binding signal (z-score),[15],-0.198
same,glycan array binding signal (z-score),[16],-0.179
same,glycan array binding signal (z-score),[17],-0.201
same,glycan array binding signal (z-score),[18],-0.192
same,glycan array binding signal (z-score),[19],-0.194
same,glycan array binding signal (z-score),[20],-0.122
same,glycan array binding signal (z-score),[21],-0.104
same,glycan array binding signal (z-score),[22],-0.074
same,glycan array binding signal (z-score),[23],-0.186
same,glycan array binding signal (z-score),[24],-0.2
same,glycan array binding signal (z-score),[25],-0.123
same,glycan array binding signal (z-score),[26],-0.195
same,glycan array binding signal (z-score),[27],-0.2
same,glycan array binding signal (z-score),[28],-0.18
same,glycan array binding signal (z-score),[29],-0.2
same,glycan array binding signal (z-score),Neu5Ac(a2-3)Gal(b1-4)Glc,-0.163
same,glycan array binding signal (z-score),[30],-0.188
same,glycan array binding signal (z-score),[31],0.025
same,glycan array binding signal (z-score),[32],-0.182
same,glycan array binding signal (z-score),[33],-0.196
same,glycan array binding signal (z-score),[34],-0.188
same,glycan array binding signal (z-score),[35],0.494
same,glycan array binding signal (z-score),[36],-0.193
same,glycan array binding signal (z-score),[37],-0.171
same,glycan array binding signal (z-score),[38],-0.204
same,glycan array binding signal (z-score),[39],-0.198
same,glycan array binding signal (z-score),[40],-0.133
same,glycan array binding signal (z-score),[41],-0.194
same,glycan array binding signal (z-score),[42],-0.186
same,glycan array binding signal (z-score),[43],-0.197
same,glycan array binding signal (z-score),[44],-0.202
